Laboratory results taken from paper PMC12136788.
This is one part of the list.

T1: UNK ZnF1-3 (human, UniProt Q9C0B0 31-174)
T1 sequence: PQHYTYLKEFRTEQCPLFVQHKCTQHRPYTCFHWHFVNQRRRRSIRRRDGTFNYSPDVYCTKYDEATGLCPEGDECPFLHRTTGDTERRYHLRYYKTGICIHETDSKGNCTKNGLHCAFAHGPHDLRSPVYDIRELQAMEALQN

B1: chr19:16212804:16212805:+_ENSG00000167460_ENST00000300933|hu_mus|hu_hu_hu_mus_False|98_98 (ssRNA)
RNA: GGGAGUUCUACAGUCCGACGAUCAACAAUUCUGGAGAAGAACAUCAAUGUAACAUGGAACAGCAUUAAAGCUCAGUCAGAAGGCACAUGGGCAACAAUGAUCACCCCAGCAUUCUCGCUUGGAAUGCUUAAAGACAAUCUGUUCAACAGAGGAUUGAGCAUCA
B2: chr16:55990476:55990477:+_ENSMUSG00000022601_ENSMUST00000050248|mus_hu|FALSE|FALSE (ssRNA)
RNA: GGGAGUUCUACAGUCCGACGAUCUAGCUUAUGUACACUUUCACAAAUCUCUAAGACUUCUGACAUGAAAAGAUGACGAGCUAAGAUGGCUACAUCAGCCAUGCUACAGAAAUCAAAACUUAGUACAGAAGUAUAGGCAAAUUCCAACAGAGGAUUGAGCAUCA
B3: chr9:71842732:71842733:+_ENSG00000119139_ENST00000377245|hu_mus|motif|central (ssRNA)
RNA: GGGAGUUCUACAGUCCGACGAUCAUCCUGAUCAGAAUACUGCUGGCGUCUCUCCUCUGGAGAGAAAGACCGGUUGGACUCGGUUUCCGAGAUAUCCUCCACUUCAGAGUCGCUGUCGUUUAGGGCUGGGAUGUUGAUGAGGGUCAACAGAGGAUUGAGCAUCA
B4: chr14:66974463:66974464:+_ENSMUSG00000022044_ENSMUST00000074523|mus_hu|mus_mus_mus_hu_False|38_68 (ssRNA)
RNA: GGGAGUUCUACAGUCCGACGAUCUUGUAGGACGACUUAUUCAGGGGAUCGGCCAGGAAGCAGGAGCAGAACAGAGACACCAGCGGGAGCUCCUUCAUCUUCUCCUUGUAGGCAGCAAGGGUCAUGUUUCUGGGAUCUGGUGGCCAACAGAGGAUUGAGCAUCA
B5: chr4:115894766:115894767:+_ENSMUSG00000028698_ENSMUST00000030464|mus_hu|mus_mus_mus_hu_True|88_98 (ssRNA)
RNA: GGGAGUUCUACAGUCCGACGAUCUUCCACACGGAAAGUACUUGGGGGUUUCCAACGGGCCAGUACCAGUCCGGCCAAACUACCCGAACAGGGUCCUCCCCCUCUCUCCUACAGAACACAACAAAAUGCCCCCGAACUUUCAAGCAACAGAGGAUUGAGCAUCA
B6: chr18:5290039:5290040:-_ENSG00000198081_ENST00000357006|hu_hu|FALSE|FALSE (ssRNA)
RNA: GGGAGUUCUACAGUCCGACGAUCCUAGGAAAUCUUGGGAUUGUUACACAUGUAAAAAACCUUAUCUCUGAGAGCCUUUUCUAUUCUUCUUACCACAGGUCCACUCACAAAUCGCAGCUGGUAUGGACUGGUACUGCCCCAAAUCAACAGAGGAUUGAGCAUCA
B7: 67201294_67202411_752_3pUTR_ENSMUSG00000031604_ENSMUST00000034015|mouse|control|control (ssRNA)
RNA: GGGAGUUCUACAGUCCGACGAUCUAAAUUCUCUUGUGGUGAAGGAGUCUGUGCAGGAAAUAAUGCCAGGUGUCCUCAAUGACUGCACAGCCCAAACACCUUGCCAAAGUUAAGUACCAUCUUGGCAUUCUUUCCCAAUCAUAACAACAGAGGAUUGAGCAUCA
B8: chrX:106345308:106345309:+_ENSMUSG00000031246_ENSMUST00000033598|mus_hu|motif|central (ssRNA)
RNA: GGGAGUUCUACAGUCCGACGAUCUUCUCUCAUCCACUUCCGAUUCUCUUCAUUGGCUGCAAUAUCUUUUUCUUCAAAUCCGGUUUUGUUGGCUUCUAGGAAACCAAGCACAUCUUGUUGUUUCUUCUUAAUCGCUGUAGAGCCCAACAGAGGAUUGAGCAUCA
B9: chr14:76904430:76904431:+_ENSMUSG00000022010_ENSMUST00000022587|mus_mus|mus_mus_mus_hu_True|8_108 (ssRNA)
RNA: GGGAGUUCUACAGUCCGACGAUCUGCUGGAAAAAAAACCCUCGUGGAAAAAAAGAGGGAACACCAGCAGCCUUGUAUAAGCUAGAUAAAAUCUUCUGGCUUUCCGCAGCCCAGGGAGAAACAGAAAUGGUGCUGGCUAAUUUACAACAGAGGAUUGAGCAUCA
B10: chr12:57037365:57037366:-_ENSG00000110955_ENST00000262030|hu_mus|FALSE|FALSE (ssRNA)
RNA: GGGAGUUCUACAGUCCGACGAUCCUUUCCAACGCCAGCACCUCCAAAGAGUCCGAUUUUCCCACCCUUGGCGUAUGGGGCCAGCAGAUCCACAACCUUUAUCCCAGUCACCAGAAUCUCCUGCUCAACACUCAUCUCUAUGAACAACAGAGGAUUGAGCAUCA
B11: 3603523_3604810_715_CDS_ENSMUSG00000035632_ENSMUST00000038913|mouse|control|control (ssRNA)
RNA: GGGAGUUCUACAGUCCGACGAUCGUCCUGCUUAUCCUUGUCGCCUUUCUUCUUGCGUGUCUGUACCGACAGUGACUCCACUUCACUCUCAAACUGGUCCACCUGCAUAUUUAAGGUGUCAAUGGUGUUCGUGAGCCACUGGCCCAACAGAGGAUUGAGCAUCA
B12: chr9:66219764:66219765:+_ENSMUSG00000038664_ENSMUST00000042824|mus_mus|motif|central (ssRNA)
RNA: GGGAGUUCUACAGUCCGACGAUCUUCAAAAUCAGGCAACUGUGGUCCUUUGAGGCAUAAAACCUGUUGAGGCAAAGGUACGGCUUCCUUAUUGCUGAUCAGUUUAGAAUACAAAACGGUAACUCCCUCUCUUGUAGCAAUAGACAACAGAGGAUUGAGCAUCA
B13: 151023832_151026400_559_CDS_ENSMUSG00000058454_ENSMUST00000124340|mouse|control|control (ssRNA)
RNA: GGGAGUUCUACAGUCCGACGAUCGCCUCCCACAUAACCUGGCAGAAAUCUGUGGCAGAAGUCAGGAAGCCAGGAAUAAAGCAGCACCUGGAAGCUGACCCACAAGGCAUACAGUUGGGCAGCUUUAGCUGUCACAGGUGGUGUCAACAGAGGAUUGAGCAUCA
B14: chr12:90018129:90018130:-_ENSG00000070961_ENST00000261173|hu_mus|motif|central (ssRNA)
RNA: GGGAGUUCUACAGUCCGACGAUCCUCUGCAAGCCAUGGUCUUUUCUGAACCCAGAAGGUAUCGAUCACAAAAUACAACACGGGGAUGAUAACUGUGAUGGCAGACAUCAGCAGACCUGCUUUGCCAAUCUGAACAGCCAGCUUCAACAGAGGAUUGAGCAUCA
B15: chr1:109605286:109605287:-_ENSG00000197780_ENST00000461096|hu_mus|hu_hu_hu_mus_True|68_108 (ssRNA)
RNA: GGGAGUUCUACAGUCCGACGAUCAAGAACAAUAACAACAUUCAGUAACCUCUUUAAAUGCAAUUAUCCUUACUUUAAGCUAAGCAGAAUAAUAAUUUAAUACCGUAAGUGAACUACACACAAAGCCUGAACCGCGAAAAUGGUCAACAGAGGAUUGAGCAUCA
B16: 102284419_102284539_9320_CDS_ENSMUSG00000043940_ENSMUST00000053177|mouse|control|control (ssRNA)
RNA: GGGAGUUCUACAGUCCGACGAUCCUGGCCGAAGUUGUUAAUGAACCCGAUGGUGGCCGUCUCCUUCAGUGGGUCGUUGAUGUUGUAGAUAUCCACUUGCCCCUCAUAAAAAAGGUGAUGGAAGACAUUCACAGCCUCUACGGCCAACAGAGGAUUGAGCAUCA
B17: chr12:39756943:39756944:-_ENSG00000139116_ENST00000544797|hu_mus|hu_hu_hu_mus_False|28_38 (ssRNA)
RNA: GGGAGUUCUACAGUCCGACGAUCGGUUUGGCUGUUACCCCCAAGGGAAUCCUGCAAGAGUCUUGUCAGCUUAGAGUCUCUGUAAGGGACAUGGGUGGCCCUCUUGCUCUUGUCUCCCAAGGCGCUGAUUACAUUCCCAAGAGCCAACAGAGGAUUGAGCAUCA
B18: chr1:58468927:58468928:-_ENSMUSG00000026034_ENSMUST00000148330|mus_mus|mus_mus_mus_hu_False|78_108 (ssRNA)
RNA: GGGAGUUCUACAGUCCGACGAUCAAUCUAUAAUUACGAUGUUCAUUACCUUAGCUAGGCCAUGUAUGAACCAAAUUACCCAAACAAAAUAAACAUGGCAAUAUAAAAAUGUUAAGAAUUUACAAAGCUGUACAAAAUAACUUACAACAGAGGAUUGAGCAUCA
B19: chr4:41262718:41262719:+_ENSG00000154277_ENST00000284440|perfect_dup|motif|central (ssRNA)
RNA: GGGAGUUCUACAGUCCGACGAUCCCCGAUGGUACCACAGGAGUUUCCGAUGGUCUGCUUCAUGAAGUAAACUUUAGGGCGGACUUCCUGUCCCUUCAGUUCCUCAAUUUGCUUUUUCCUGAAGUUUUCAUGCUGGGCCGUGAGCAACAGAGGAUUGAGCAUCA
B20: chr11:2981123:2981124:-_ENSG00000205531_ENST00000380542|hu_hu|motif|central (ssRNA)
RNA: GGGAGUUCUACAGUCCGACGAUCCUUGUAGGUUUUUGUCAGGACUGAGUUGGUAAAGUAGUCGUUGGGUUCAAAGUGGAACUCGGACACAAAAGACAUAGGCUGUCCAGGGUCAGAAAAUUUCACUUUAAUAUCCUGCAGGUGCAACAGAGGAUUGAGCAUCA
B21: 56100042_56101346_1441_CDS_ENSG00000126777_ENST00000438792|human|control|control (ssRNA)
RNA: GGGAGUUCUACAGUCCGACGAUCCUUCUUUUGGACUUCCUCUUGCUGUAGCUUUCCUGUUUUCUCAGUCAGCUCAUUCACCAACCUAGCAUAAUCCUGGCGUAGUUUAUUUAGUUCUGCAGACUGCUUGCUUUCCAGUUGAUUCAACAGAGGAUUGAGCAUCA
B22: chr19:8913615:8913616:-_ENSMUSG00000071658_ENSMUST00000096259|mus_hu|mus_mus_mus_hu_False|78_78 (ssRNA)
RNA: GGGAGUUCUACAGUCCGACGAUCAGGGUACCAAAACCUUCUGCCUGAAAUGGGUGCCCCACCCUGCAGGGAGUUGCAGCUGAAAGUAUCUGAUGCAGAAGCAGUGACUAUACGAAAGGAGGCCCCUGGGGAGGGCCAGGCCAGCAACAGAGGAUUGAGCAUCA

Each binder was assayed against T1, UNK ZnF1-3 (assay: nsRBNS (natural sequence RNA bind-n-seq); RBNS binding buffer (assumed for nsRBNS): 25 mM Tris pH 7.5, 150 mM KCl, 3 mM MgCl2, 0.01% Triton X-100, 500 ug/ml BSA, 20 U/ml SUPERase-In, 4 C; UNK is unkempt and MSI1 is Musashi-1; names of the RNAs are library labels; protein concentration not given here; high values mean tight binding).

| Binder | binding signal |
| --- | --- |
| B1 | 1.2 enrichment R |
| B2 | 0.841 enrichment R |
| B3 | 0.75 enrichment R |
| B4 | 2.34 enrichment R |
| B5 | 1.16 enrichment R |
| B6 | 1.11 enrichment R |
| B7 | 0.868 enrichment R |
| B8 | 0.451 enrichment R |
| B9 | 2.45 enrichment R |
| B10 | 1.58 enrichment R |
| B11 | 1.03 enrichment R |
| B12 | 0.879 enrichment R |
| B13 | 1.31 enrichment R |
| B14 | 1.25 enrichment R |
| B15 | 0.865 enrichment R |
| B16 | 1.15 enrichment R |
| B17 | 0.802 enrichment R |
| B18 | 0.582 enrichment R |
| B19 | 0.827 enrichment R |
| B20 | 1.1 enrichment R |
| B21 | 0.305 enrichment R |
| B22 | 1.34 enrichment R |
